Measurements published in PubChem BioAssay AID485344 (National Center for Advancing Translational Sciences (NCATS), 2010).
The whole screen tested about 340,000 compounds, of which about 6,900 (2%) were called active. No stated cut-off is given here; in the data, active means inhibition above about 30%; inactive means below that, where a call was filed. This is a selection; strong and weak results do not stand in their true shares. Entries without a call were filed so in the source.
Further: 0% is about no effect.

These compounds were tested against D(2) dopamine receptor (Homo sapiens) (UniProt P14416) (assay: HTS Assay for Allosteric Antagonists of the Human D2 Dopamine Receptor: Primary Screen for Antagonists). Details: HEK293 TREx D2 cells, calcium flux, dopamine EC80; at 10 µM; stronger effect = higher value.
UniProt P14416, sequence (P14416 whole entry, looked up): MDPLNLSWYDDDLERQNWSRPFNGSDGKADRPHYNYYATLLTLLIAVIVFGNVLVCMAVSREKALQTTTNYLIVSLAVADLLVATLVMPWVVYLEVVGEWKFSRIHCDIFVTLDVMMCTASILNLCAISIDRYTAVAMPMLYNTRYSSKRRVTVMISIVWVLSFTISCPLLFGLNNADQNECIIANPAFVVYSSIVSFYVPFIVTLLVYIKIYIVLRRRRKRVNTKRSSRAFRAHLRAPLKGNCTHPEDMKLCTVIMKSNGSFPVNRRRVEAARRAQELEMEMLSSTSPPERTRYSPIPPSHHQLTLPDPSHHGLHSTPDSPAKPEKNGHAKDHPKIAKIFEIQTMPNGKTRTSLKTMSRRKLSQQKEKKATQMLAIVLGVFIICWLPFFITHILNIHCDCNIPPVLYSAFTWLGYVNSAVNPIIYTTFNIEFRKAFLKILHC
Procedure, shortened: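 Tetracycline-induced HEK293 T-REx cells expressing D2 force-coupled to calcium signalling were dye-loaded, exposed to compound for 180 s, then challenged with an EC80 of dopamine; calcium flux was followed kinetically for a further 180 s.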
`Cn1c(-n2cccc2)c(-c2c(-c3ccccc3)[nH]c3c2c(=O)[nH]c(=O)n3C)c(=O)[nH]c1=O` showed an inhibition of -14.6%.
`Cc1ccc2c(c1)N(CC(=O)NCCc1ccc(Cl)cc1)C(=O)c1cccnc1O2` was tested, and the inhibition was -5.93%.
Work on `Cc1cc(-c2ccc(S(=O)(=O)Nc3ccccc3F)s2)on1` yielded an inhibition of -2.93%.
Work on `CC(NC(=O)Cc1ccc(NC(=O)N2CCSc3ncccc32)cc1)c1ccccc1` (stereo not drawn) yielded an inhibition of 5.23%.
`O=C(NCc1ccccc1)C(=O)Nc1ccc2nc3n(c(=O)c2c1)CCCCC3` showed an inhibition of -7.06%.
Compound `COc1ccccc1NC(=O)CN1C(=O)C2(SCC(=O)N2c2ccc(F)c(F)c2)c2ccccc21` (stereo not drawn) has an inhibition of -8.32%.
With `Cc1nnc(NC(=O)c2nc(SCc3ccccc3F)ncc2Cl)s1` the inhibition was -1.8%.
Compound `COc1cc(NC(=O)CSc2nc(-c3ccco3)cc(C(F)(F)F)n2)cc(OC)c1OC` has an inhibition of 5.78%.
`CCc1cc(C(=O)NCc2ccccc2)no1` showed an inhibition of -14%.
Work on `Cc1ccc(CN2COc3ccc4c(-c5ccccc5)cc(=O)oc4c3C2)cc1` yielded an inhibition of -16.6%.
`Cc1cc(C)nc(-n2nc(C)c3c2N(C)C(=O)CC3c2ccc(Cl)cc2)n1` (stereo not drawn) showed an inhibition of 18.5%.
In the case of `Cc1c(C(=O)Nc2cccc(Cl)c2)oc2ccc(S(=O)(=O)N3CCCCCC3)cc12`, the inhibition is reported as -8.28%.
For `COC(=O)c1ccc(C2c3c(-c4ccccc4O)n[nH]c3C(=O)N2Cc2ccncc2)cc1` (stereo not drawn), the inhibition was 10.7%.
Compound `COc1ccc(-c2nc(CNS(=O)(=O)c3ccc(Br)cc3)cs2)cc1` has an inhibition of 7.09%.
`CC(C)c1nn2c(=O)cc(COC(=O)c3ccccc3NC(=O)COc3ccccc3)nc2s1` gave an inhibition of 9.38%.
In the case of `Cc1nnc(NC(=O)CSc2nccn2Cc2ccc(F)cc2)s1`, the inhibition is reported as -5.44%.
Compound `CCOc1ccccc1NC(=O)c1c(NCc2cccs2)sc2c1CCC(C)C2` (stereo not drawn) has an inhibition of 11.1%.
In the case of `CCC(=O)N1CCc2cc(OC)c(OC)cc2C1COc1ccccc1OC` (stereo not drawn), the inhibition is reported as -25.8%.
Work on `Cc1cccc(OCc2ccc(-c3nc(C#N)c(NCc4cccnc4)o3)o2)c1` yielded an inhibition of -5.43%.
Work on `O=C(CSc1nc(-c2cccc(F)c2)[nH]c1-c1ccccc1)Nc1ccc2c(c1)OCCO2` yielded an inhibition of 2.5%.
In the case of `CCc1ccc(NC(=O)CCCc2nnc3n(CC(C)C)c(=O)c4sccc4n23)cc1`, the inhibition is reported as 13.6%.
With `Nn1c(SCCOc2ccccc2)nnc1-c1cccnc1` the inhibition was active: 32.7%.
For `O=C(Nc1c2c(nn1-c1ccc(Cl)cc1)CS(=O)(=O)C2)c1cccc(F)c1`, the inhibition was 5.09%.
`Cc1ccc(-c2nc(CS(=O)CC(=O)N3CCN(c4cccc(Cl)c4)CC3)c(C)o2)cc1` (stereo not drawn) showed an inhibition of 3.11%.
`CCCOc1cccc(C2c3c(oc4ccccc4c3=O)C(=O)N2c2nncs2)c1` (stereo not drawn) was tested, and the inhibition was -16.9%.
For `COc1ccc(N2CCN(S(=O)(=O)c3ccc(OC)c(C(=O)N4CCCC4)c3)CC2)cc1`, the inhibition was active: 47.5%.
Work on `O=C(Nc1cccc(O)c1)c1noc2c1CCc1ccccc1-2` yielded an inhibition of 9.35%.
In the case of `CC1CCCCC1NC(=O)C1CCN(c2c3c(nc4ncnn24)CCC3)CC1` (stereo not drawn), the inhibition is reported as active: 34.1%.
In the case of `COc1cccc(C(=O)c2cn(CC(=O)NCc3ccccc3Cl)c3nc(C)ccc3c2=O)c1`, the inhibition is reported as 0.69%.
Work on `Cc1ccc(C)c(Cn2c(CCCNC(=O)C3CCCCC3)nc3ccccc32)c1` yielded an inhibition of -8.3%.
`Cc1ccc2cccc(NC(=O)COc3ccccc3Cl)c2n1` gave an inhibition of -10.3%.
`Cc1c(Cl)cccc1NC(=O)Cn1cc(C(=O)c2cccs2)c2ccccc21` gave an inhibition of 12.2%.
Work on `Cc1nc(-c2cccc(NC(=O)Nc3ccccc3C(F)(F)F)c2)no1` yielded an inhibition of -7.74%.
With `CCc1ccc(-n2c(=O)c3sc4ccccc4c3n(CC(=O)N3CCCC3)c2=O)cc1` the inhibition was 8.58%.
`O=C(CSc1nc2ccsc2c(=O)n1Cc1ccccc1Cl)NCc1ccc(F)cc1` gave an inhibition of 17.5%.
With `CCc1cccc(NC(=O)CN2Cc3ccccc3C2=O)c1` the inhibition was -15.8%.
`COc1ccc(-c2cc(C)no2)cc1S(=O)(=O)NCc1cccs1` showed an inhibition of 8.58%.
With `CCOc1ccc(C2CC(=O)Nc3cc4c(cc32)OCO4)cc1OC` (stereo not drawn) the inhibition was 18.8%.
`COc1cc(CNC(=O)C2CCCCN2S(=O)(=O)c2ccc(F)cc2)cc(OC)c1OC` (stereo not drawn) gave an inhibition of -3.5%.
`CCOC(=O)c1c(S(=O)(=O)N2CCCC(C(=O)Nc3ccccn3)C2)c(C)n(C)c1C` (stereo not drawn) was tested, and the inhibition was 28.2%.
`COc1ccc(CNC(=O)c2cc(-c3ccc(OC)cc3)nc3n[nH]c(-c4cccc([N+](=O)[O-])c4)c23)cc1` was tested, and the inhibition was -14.2%.
In the case of `Cc1ccc(CNC(=O)C2CCN(S(=O)(=O)c3ccc(F)cc3)CC2)cc1`, the inhibition is reported as -14.7%.
Compound `CC(=O)N1CCc2c(sc3c2c(=O)n(-c2ccc(C)cc2)c(=O)n3Cc2c(F)cccc2Cl)C1` has an inhibition of -6.86%.
`COc1ccccc1CNC(=O)c1cccn1-c1nnc(N2CCCCC2)s1` gave an inhibition of 0.837%.
For `CN(C)S(=O)(=O)c1ccc(Cl)c(NC(=O)CN2CCC(Cc3ccccc3)CC2)c1`, the inhibition was active: 42.3%.
`COc1cccc(CN(C(=O)c2oc3ccccc3c2C)C2CCS(=O)(=O)C2)c1` (stereo not drawn) showed an inhibition of 7.11%.
Compound `CCc1cccc(C)c1NC(=O)CCS(=O)(=O)c1ccc2c(c1)oc(=O)n2C` has an inhibition of 3.27%.
Work on `O=C(Cc1ccc(Cl)cc1)Nc1ccc2oc(-c3ccccc3F)nc2c1` yielded an inhibition of 9.31%.
`Cc1cc2n(n1)CCC(=O)N2Cc1ccc(C(=O)Nc2cccc(C(F)(F)F)c2)cc1` was tested, and the inhibition was 5.44%.
`COC(=O)c1cc2sc(C)cc2n1Cc1nc(-c2ccc(C)cc2)oc1C` was tested, and the inhibition was -4.59%.
In the case of `CCC1ON(C(C)C)C2c3nc4ccccc4n3CC12` (stereo not drawn), the inhibition is reported as active: 32.2%.
`CC(C)c1ccc(Nc2c(-c3ccc(N(C)C)cc3)nc3cnccn23)cc1` showed an inhibition of 10.5%.
In the case of `Cc1ccc(Nc2c(-c3ccc(C)cc3)nc3c(C)cccn23)cc1`, the inhibition is reported as -5.09%.
For `COc1ccc(-c2noc(CSc3nc4ccccc4[nH]3)n2)cc1`, the inhibition was 13.6%.
`O=C(NCCc1ccc(Cl)cc1)C(=O)NCC(c1cccs1)S(=O)(=O)c1ccccc1` (stereo not drawn) gave an inhibition of 16%.
With `CCCCc1nn2c(=O)cc(COC(=O)c3ccccc3C)nc2s1` the inhibition was -10.9%.
`COc1ccc(NC(=O)C(C(C)C)N2Cc3ccccc3C2=O)cc1` (stereo not drawn) showed an inhibition of 5.99%.
`CCc1ccccc1NC(=O)NC(CC)Cn1nnc2ccccc2c1=O` (stereo not drawn) gave an inhibition of -22.7%.
`CCOc1ccccc1NS(=O)(=O)c1cc(-c2cnc(C3CC3)o2)ccc1C` was tested, and the inhibition was 18.1%.
Work on `Cc1ccc(-n2nc3c(=O)n(C(C)C(=O)NCc4ccccc4C)nc(C)c3c2C)cc1` (stereo not drawn) yielded an inhibition of 0.602%.
`O=C(c1cc2ccc3cccnc3c2[nH]1)N1CCN(c2cccc(Cl)c2)CC1` gave an inhibition of -16%.
`COc1cc(OC)cc(C(=O)NCCc2csc(-c3ccc(C(F)(F)F)cc3)n2)c1` gave an inhibition of -5.79%.
`COc1ccccc1NC(=O)c1sc2nc(C)c(C(=O)Nc3ccc(C)cc3C)c(-c3ccccc3Cl)c2c1N` was tested, and the inhibition was 0.682%.
`Cc1ccc(NC(=O)CCN2C(=O)c3ccccc3Sc3ncccc32)c(Cl)c1` showed an inhibition of -3.24%.
With `Cc1ccc2oc(=O)c3cc(C(=O)NCCc4ccc(Cl)cc4)sc3c2c1` the inhibition was -4.2%.
With `CCS(=O)(=O)N1CCc2cc(C(=O)NCc3ccccc3Cl)ccc21` the inhibition was -12.3%.
With `O=c1oc2ccccc2cc1-c1nc(-c2cccs2)no1` the inhibition was 6.06%.
With `CCC(=O)Nc1sc2c(c1C(=O)Nc1ccc(Br)cc1)CCCCC2` the inhibition was 6.56%.
For `Cc1cccc(N2CCN(C(=O)c3cc4ccc5cccnc5c4[nH]3)CC2C)c1` (stereo not drawn), the inhibition was 11.4%.
`CN1CCN(C(CNC(=O)c2c(F)cccc2F)c2ccc3c(c2)OCO3)CC1` (stereo not drawn) was tested, and the inhibition was -19%.
`O=c1c2ccccc2n(Cc2cccc(Cl)c2)c(=O)n1Cc1ccccc1` showed an inhibition of 10.8%.
For `CCN(C(=O)Cn1ncc2c(=O)oc3ccccc3c21)c1ccccc1F`, the inhibition was -7%.
`COCCc1nn2c(=O)cc(COC(=O)c3ccc(Br)cc3)nc2s1` was tested, and the inhibition was -6.87%.
`CCC(C)NC(=O)c1sc2nc3n(c(=O)c2c1C)CCC3` (stereo not drawn) gave an inhibition of 11.6%.
In the case of `CCCCCCn1ccc(=N)cc1`, the inhibition is reported as active: 35.8%.
Work on `COCCCNc1nc(NCc2ccc(C)cc2)c2cnn(C)c2n1` yielded an inhibition of -8.61%.
Compound `COc1cccc2c1cc1c(=O)n(CC(=O)N3CCC(C)CC3)nc(C)n12` has an inhibition of -9.7%.
With `CCCCNC(=O)CN1CCN(c2ncc(NC(=O)c3ccc(Cl)cc3)cc2C(=O)O)CC1` the inhibition was 6.86%.
`COc1cc(NC(=O)C2CCN(c3nc4ccccc4nc3C(F)(F)F)CC2)cc(OC)c1` gave an inhibition of -11.7%.
Compound `CCc1ccccc1N(CC)C(=O)C1CCN(c2ncnc3c2nc2n3CCCCC2)CC1` has an inhibition of 3.21%.
For `CCCOc1cccc(C2c3c(oc4ccc(F)cc4c3=O)C(=O)N2c2nc(C)c(C(C)=O)s2)c1` (stereo not drawn), the inhibition was 9.53%.
In the case of `COc1ccc(CN2CCC(c3nc4ccc(Cl)cc4[nH]3)CC2)cc1`, the inhibition is reported as active: 59.7%.
`COc1cccc(C(=O)NCC(=O)N2CCC3(CC2)NCCc2[nH]cnc23)c1OC` was tested, and the inhibition was active: 30.4%.
Compound `Cc1cc(C)c(NC(=O)CSc2nc3c([nH]c4ccccc43)c(=O)n2C)c(C)c1` has an inhibition of 6.55%.
`COc1ccc(CCNC(=O)c2ccc(Cn3c(=O)[nH]c4cc(OC)c(OC)cc4c3=O)cc2)cc1OC` was tested, and the inhibition was -15.7%.
Work on `COc1cccc(C(=O)N(Cc2ccc(C)o2)C2CCS(=O)(=O)C2)c1` (stereo not drawn) yielded an inhibition of -1.93%.
With `COc1ccc(-c2cc(C(F)(F)F)nc(NCc3ccc(F)cc3)n2)cc1` the inhibition was -24.9%.
With `CCOc1ccc(NC(=O)CSc2oc(-c3ccc(C)cc3)nc2S(=O)(=O)c2ccc(C)cc2)cc1` the inhibition was 20.9%.
In the case of `O=C(COCc1cc(-c2cccs2)on1)Nc1cc(C(F)(F)F)ccc1Cl`, the inhibition is reported as 4.57%.
Compound `CC1CCN(S(=O)(=O)c2ccc3nc(N4CCN(c5ccc(F)cc5)CC4)ccc3c2)CC1` has an inhibition of 0.278%.
With `COc1ccc(CCNc2ncnc3onc(C)c23)c(OC)c1` the inhibition was 6.47%.
`COCCCn1c(=N)c(C(=O)NC2CCCCC2)cc2c(=O)n3cc(C)ccc3nc21` gave an inhibition of -7.58%.
In the case of `OC(COc1cccc2ccccc12)CN1CCN(c2ccccc2Cl)CC1` (stereo not drawn), the inhibition is reported as active: 39.1%.
`CC1CCCCN1CCCNC(=O)Cn1ncc2c3ccccc3n(C)c2c1=O` (stereo not drawn) was tested, and the inhibition was -7.68%.
Compound `Cc1ccc(S(=O)(=O)c2cc3cc(C(=O)Nc4ccc(C)cc4C)ccc3oc2=O)cc1` has an inhibition of 17.5%.
For `CC(C)c1ccc(NC(=O)Cc2cn(C)c3ccccc23)cc1`, the inhibition was active: 48.8%.
With `CCSc1ccc2c(c1)N(CCCN1CCN(C)CC1)c1ccccc1S2` the inhibition was active: 82.6%.
In the case of `CC(=O)N1CCc2cc(Br)cc(S(=O)(=O)NCc3ccc(Cl)cc3)c21`, the inhibition is reported as active: 68.1%.
